We go through 27 molecules from the antibiotic and cytotoxicity screens of Wong et al. (2023).

One assay deals with HSkMC. Put plainly: cytotoxicity call (relative viability < 0.9). The note with it: 10 µM.
A further assay relates to HepG2. Put plainly: cytotoxicity call (relative viability < 0.9). The note with it: 10 µM.
In another assay the test system is S. aureus RN4220. Briefly: growth inhibition call (relative growth <= 0.2). The note with it: 50 µM.

Some of the results follow.

For the molecule `C[C@H](CO)N1C[C@H](C)[C@@H](CN(C)S(=O)(=O)c2ccc(F)cc2)Oc2ccc(NC(=O)CCN3CCOCC3)cc2C1=O`, the cytotoxicity call with HSkMC and with HepG2 was “inactive” each time. Also, the growth inhibition call in the assay on S. aureus RN4220 was “inactive”.
Take `C[C@@H]1CN([C@@H](C)CO)C(=O)c2c(c3ccccc3n2C)-c2ccccc2CO[C@H]1CN(C)Cc1cccc2c1OCCCO2`: the cytotoxicity call in the assay on HSkMC and in the assay with HepG2 was “inactive” each time. Moreover, in the assay on S. aureus RN4220, the growth inhibition call was “inactive”.
On to `C[C@@H]1CN([C@H](C)CO)C(=O)Cc2cc(NC(=O)C3CCCCC3)ccc2O[C@H]1CN(C)C(=O)Nc1ccc(C(F)(F)F)cc1`, for which the cytotoxicity call with HSkMC and with HepG2 was “inactive” in each case. Besides, the growth inhibition call with S. aureus RN4220 is “inactive”.
As to `COc1ccc(NC(=O)Nc2ccc3c(c2)C(=O)N([C@@H](C)CO)C[C@H](C)[C@@H](CN(C)C(=O)c2ccccc2)OCCCC[C@H](C)O3)cc1`, the cytotoxicity call in the assay with HSkMC and with HepG2 was “inactive” throughout. In addition, the growth inhibition call in the assay with S. aureus RN4220 is “inactive”.
Regarding `CO[C@H]1CN(C)C(=O)c2ccc(NC(=O)c3ccccc3)cc2OC[C@H](C)N(C(=O)CN(C)C)C[C@@H]1C`, the cytotoxicity call in the assay with HSkMC and in the assay with HepG2 was “inactive” throughout. Further, in the assay with S. aureus RN4220, the growth inhibition call was “inactive”.
Regarding `C[C@H](CO)N1C[C@H](C)[C@@H](CN(C)CC2CCCCC2)Oc2ccc(NC(=O)Nc3ccc(C(F)(F)F)cc3)cc2C1=O`, the cytotoxicity call in the assay on HSkMC and with HepG2 was “inactive” throughout. Besides, the growth inhibition call in the assay with S. aureus RN4220 is “inactive”.
In the case of `CC(C(=O)O)c1ccc(CC2CCCC2=O)cc1` (stereo unspecified), the cytotoxicity call in the assay on HSkMC and with HepG2 was “inactive” in each case. Besides, the growth inhibition call with S. aureus RN4220 is “inactive”.
Take `C[C@@H]1CN([C@@H](C)CO)S(=O)(=O)c2ccc(Br)cc2O[C@H]1CN(C)S(=O)(=O)c1ccc(F)cc1`: the cytotoxicity call with HSkMC and in the assay on HepG2 was “inactive” in each case. Further, the growth inhibition call in the assay on S. aureus RN4220 is “inactive”.
Regarding `CN(C)N=Nc1[nH]cnc1C(N)=O`, the cytotoxicity call with HSkMC and in the assay with HepG2 was “inactive” each time. Further, the growth inhibition call in the assay on S. aureus RN4220 is “inactive”.
As for `COc1ccc(S(=O)(=O)Nc2ccc3c(c2)CC(=O)N([C@H](C)CO)C[C@H](C)[C@H](CN(C)Cc2ccc(Oc4ccccc4)cc2)O3)cc1`, the cytotoxicity call with HSkMC was “inactive”. Also, in the assay on HepG2, the cytotoxicity call is “active”. The growth inhibition call in the assay on S. aureus RN4220 was “inactive”.
For `COc1ccc(NC(=O)Nc2ccc3c(c2)C(=O)N([C@@H](C)CO)C[C@@H](C)[C@H](CN(C)Cc2ccc(Cl)c(Cl)c2)O3)cc1`, the cytotoxicity call with HSkMC and with HepG2 was “inactive” throughout. Besides, the growth inhibition call in the assay with S. aureus RN4220 was “inactive”.
As to `CNC[C@@H]1OCCCC[C@H](C)Oc2ccc(NC(=O)Nc3cccc4ccccc34)cc2C(=O)N([C@H](C)CO)C[C@@H]1C`, the cytotoxicity call in the assay on HSkMC and in the assay with HepG2 was “inactive” throughout. Moreover, the growth inhibition call in the assay with S. aureus RN4220 was “inactive”.
Take `C[C@@H]1CCCCO[C@@H](CN(C)C(=O)Nc2ccc(C(F)(F)F)cc2)[C@H](C)CN([C@H](C)CO)C(=O)c2cc(NS(=O)(=O)c3cn(C)cn3)ccc2O1`: the cytotoxicity call in the assay with HSkMC and with HepG2 was “inactive” in each case. For the same molecule, the growth inhibition call with S. aureus RN4220 is “inactive”.
For the molecule `C[C@@H]1CN([C@H](C)CO)S(=O)(=O)c2ccc(-c3cccc(F)c3)cc2O[C@@H]1CN(C)S(C)(=O)=O`, the cytotoxicity call in the assay with HSkMC and in the assay with HepG2 was “inactive” throughout. The growth inhibition call in the assay on S. aureus RN4220 is “inactive”.
For the molecule `C[C@@H]1CCCCO[C@H](CN(C)S(=O)(=O)c2cccs2)[C@@H](C)CN([C@H](C)CO)C(=O)c2cc(NC(=O)Cc3ccccc3)ccc2O1`, the cytotoxicity call with HSkMC and in the assay with HepG2 was “inactive” throughout. For the same molecule, the growth inhibition call with S. aureus RN4220 was “inactive”.
For `C[C@@H]1CCCCO[C@@H](CN(C)Cc2ccc(Cl)c(Cl)c2)[C@@H](C)CN([C@@H](C)CO)C(=O)c2cc(NC(=O)c3ccccc3)ccc2O1`, the cytotoxicity call in the assay with HSkMC and in the assay on HepG2 was “inactive” throughout. Moreover, the growth inhibition call with S. aureus RN4220 was “inactive”.
Take `O=C(O)c1ccnc(N2CC(O)(c3ccc(OCc4c(-c5c(Cl)cccc5Cl)noc4C4CC4)cc3Cl)C2)c1`: the cytotoxicity call with HSkMC and in the assay on HepG2 was “inactive” throughout. The growth inhibition call in the assay on S. aureus RN4220 is “inactive”.
For the molecule `C[C@@H]1CCCCO[C@H](CN(C)Cc2ccc(C(F)(F)F)cc2)[C@H](C)CN([C@@H](C)CO)C(=O)c2cc(NS(=O)(=O)c3cccs3)ccc2O1`, the cytotoxicity call with HSkMC was “inactive”. For the same molecule, in the assay on HepG2, the cytotoxicity call is “active”. Besides, the growth inhibition call with S. aureus RN4220 is “inactive”.
For the molecule `C[C@H](CO)N1C[C@H](C)[C@@H](CN(C)C(=O)Nc2ccc(C(F)(F)F)cc2)OCCCC[C@H](C)Oc2ccc(NS(C)(=O)=O)cc2C1=O`, the cytotoxicity call with HSkMC and in the assay with HepG2 was “inactive” each time. In the assay on S. aureus RN4220, the growth inhibition call was “inactive”.
Turning to `CCCC(=O)Nc1ccc2c(c1)OC[C@H](C)N(S(=O)(=O)c1cn(C)cn1)C[C@@H](C)[C@H](OC)CN(C)C2=O`, the cytotoxicity call in the assay on HSkMC and with HepG2 was “inactive” each time. Besides, the growth inhibition call with S. aureus RN4220 is “inactive”.
Regarding `COc1ccc(NC(=O)N(C)C[C@H]2OCCCC[C@H](C)Oc3ccc(NC(=O)Nc4ccc(F)cc4)cc3C(=O)N([C@H](C)CO)C[C@@H]2C)cc1`, the cytotoxicity call with HSkMC and in the assay on HepG2 was “inactive” in each case. Also, in the assay with S. aureus RN4220, the growth inhibition call is “inactive”.
Consider `C[C@@H]1CN([C@H](C)CO)C(=O)c2cc(NC(=O)Nc3ccc(C(F)(F)F)cc3)ccc2O[C@H]1CN(C)C(=O)Nc1ccc(C(F)(F)F)cc1`, for which the cytotoxicity call in the assay on HSkMC and with HepG2 was “inactive” in each case. The growth inhibition call in the assay on S. aureus RN4220 is “inactive”.
Take `C[C@H]1CN([C@@H](C)CO)C(=O)Cc2cc(NC(=O)Nc3ccc4c(c3)OCO4)ccc2O[C@H]1CN(C)S(=O)(=O)c1cn(C)cn1`: the cytotoxicity call with HSkMC and in the assay with HepG2 was “inactive” throughout. Also, in the assay on S. aureus RN4220, the growth inhibition call is “inactive”.
As to `C[C@@H]1CN([C@H](C)CO)C(=O)c2cc(C#CC3(O)CCCC3)cnc2O[C@@H]1CN(C)C(=O)Cc1ccncc1`, the cytotoxicity call in the assay on HSkMC and in the assay on HepG2 was “inactive” in each case. In the assay with S. aureus RN4220, the growth inhibition call was “inactive”.
Consider `N[C@@H]1[C@H]2CN(c3nc4c(cc3F)c(=O)c(C(=O)O)cn4-c3ccc(F)cc3F)C[C@@H]12`, for which the cytotoxicity call in the assay with HSkMC and with HepG2 was “inactive” each time. Also, in the assay with S. aureus RN4220, the growth inhibition call was “active”.
`C[C@H]1CCCCO[C@@H](CN(C)Cc2ccccc2)[C@@H](C)CN([C@@H](C)CO)C(=O)c2cc(NC(=O)c3ccccc3)ccc2O1`: the cytotoxicity call in the assay on HSkMC (human skeletal muscle cells) and with HepG2 was “inactive” each time. In addition, the growth inhibition call in the assay on S. aureus RN4220 is “inactive”.
Consider `C[C@H](CO)N1C[C@H](C)[C@@H](CN(C)C(=O)CN2CCOCC2)Oc2cc(/C=C/c3ccccc3)ccc2S1(=O)=O`, for which the cytotoxicity call with HSkMC and in the assay on HepG2 was “inactive” each time. The growth inhibition call in the assay with S. aureus RN4220 was “inactive”.
